Hit rate of the full screen: of about 150,000 compounds, about 540 (0.36%) showed an effect of 50% or more. This is one part of the list.

For the assay, the system named is Plasmodium falciparum. In words: Primary screen in NF54 nanoGlo assay, in single point, at 2uM, 72h; a lower Z score goes with more inhibition. To be noted: timepoint 72 hour. The class given is functional, Erythrocyte.
Consider `CN(CCCC1(C#N)CCOCC1)Cc1cc(F)cc(F)c1`, for which the “% Inhibition” value was determined as 8% and the Z score is listed as -0.84.
In the same order, the values of `Cc1nc(C)c(Cn2cnc3ccccc3c2=O)s1` are 1% and -0.1.
For `O=C(NC1CC1)[C@@H]1CCCN1c1ncc(C(F)(F)F)s1`, in that order: 0% and 0.07.
In the same order, the values of `N#Cc1cccc(C(=O)N2CCCN([C@H]3CCOC3)CC2)c1` are -17% and 2.83.
Take `COc1cc(Cl)c(C)cc1NC(=O)CC(C)(C)CC(=O)O`: the “% Inhibition” value is -3% and the Z score is listed as 0.4.
In the same order, the values of `Cc1ncsc1C(=O)NCc1ccc(N2CCCCC2)nc1` are 3% and -0.42.
Consider `Cc1cccc(OC2CCN(C(=O)c3c[nH]c(C)cc3=O)CC2)c1`, for which the “% Inhibition” value is reported as -9% and the Z score was 1.35.
In the same order, the values of `CC(C)c1cc(C(C)C)c(S(=O)(=O)Nc2ccc(NS(=O)(=O)c3c(C(C)C)cc(C(C)C)cc3C(C)C)cc2)c(C(C)C)c1` are -1% and 0.08.
For `NC(=O)CNS(=O)(=O)[C@H]1C[C@@H]1c1ccccc1`, in that order: -3% and 0.37.
In the same order, the values of `CN1CCC(N(CCc2ccccc2)C(=O)c2ccon2)CC1` are 14% and -1.97.
For `CCN(C(=O)c1ccnc(-c2ccccc2)c1N)c1nc(C)cs1`, the “% Inhibition” value is reported as -1% and the Z score is recorded as 0.22.
`O=C(Nc1nnc(-c2ccc(Br)cc2)s1)[C@@H]1CCCN1C(=O)Nc1ccccc1Br`: the “% Inhibition” value is -7% and the Z score turned out to be 1.46.
Consider `CC(C)[C@H](CNC1=NS(=O)(=O)c2ccccc21)N1CCc2ccccc2C1`, for which the “% Inhibition” value was -2% and the Z score came out at 0.33.
In the same order, the values of `CC(C)(NCC(=O)N[C@H]1CCCCNC1=O)c1nccs1` are -4% and 0.55.
As to `O=C([C@@H]1Cc2ccccc21)N1CCN(c2cccc(Cl)c2)CC1`, the “% Inhibition” value is 13% and the Z score is reported as -1.59.
Regarding `COC(=O)[C@@H]1N[C@H](c2ccccc2C)[C@@H]2C(=O)N(c3ccccc3)C(=O)[C@@H]21`, the “% Inhibition” value is on record as -2% and the Z score turned out to be 0.38.
In the same order, the values of `O=C(O)CN1CCCC[C@H](N2CCC(CCc3ccc(F)cc3F)CC2)C1=O` are -10% and 1.05.
For `CCc1cccc(NC(=O)Cn2cc(-c3nc(C)no3)ccc2=O)c1`, in that order: -4% and 0.66.
In the same order, the values of `CN(Cc1c(F)cccc1F)CC1CCCC1O` (stereo unspecified) are -4% and 0.66.
As to `Cc1cc(=O)[nH]c(=O)n1-c1ccc2c(c1)OCO2`, the “% Inhibition” value was -11% and the Z score came out at 1.81.
For `CCCN1CCN(c2ncc3c(n2)CCN(Cc2ccc(OC)c(OC)c2)C3)CC1`, in that order: 1% and -0.21.
For `Cc1noc(CNC(=O)c2cncc(Br)c2)n1`, in that order: -8% and 1.23.
For the compound `Cc1ccn(Cc2nc3ccccc3s2)c(=O)c1C#N`, the “% Inhibition” value is reported as -7% and the Z score was determined as 0.66.
On to `N=C(NCc1ccccc1)NS(=O)(=O)c1ccccc1`, for which the “% Inhibition” value is recorded as -7% and the Z score is reported as 0.96.
`CCCCn1cnc2c(-c3ccccc3)cn(CC(=O)N3CCN(c4ccc(F)cc4)CC3)c2c1=O`: the “% Inhibition” value was 0% and the Z score is 0.04.
On to `CNC(=NCCc1ccc(Cl)s1)NC`, for which the “% Inhibition” value is -8% and the Z score turned out to be 1.06.
For the compound `c1ccc(COCc2cn([C@H]3CCN(Cc4c[nH]c5ccccc45)C3)nn2)cc1`, the “% Inhibition” value is recorded as 3% and the Z score is -0.5.
In the same order, the values of `COc1ccc(N[C@@H](C)C(=O)Nc2nc(C)cs2)c(OC)c1` are 36% and -4.86.
In the same order, the values of `COCCn1cc(NC(=O)N2CC(C)C2c2ccccc2)cn1` (stereo unspecified) are 3% and -0.3.
In the same order, the values of `Cc1cccc(CCN2C(=O)OC(C)(C)C2=O)n1` are 3% and -0.42.
On to `O=C1CCC(N2CC[C@@H]3CCCC[C@H]3C2)CCN1Cc1ccc2ccccc2c1` (stereo partly specified), for which the “% Inhibition” value is given as -7% and the Z score came out at 1.3.
For `Fc1ccc2c(c1)C(N1CCC3(CCOC3)C1)CC2` (stereo unspecified), in that order: 4% and -0.61.
In the same order, the values of `CCNc1ncc(C(=O)N2Cc3ccccc3C2)cn1` are -5% and 0.46.
In the same order, the values of `CN(C)C(=O)CN1C[C@@H](S(N)(=O)=O)Cc2ccccc21` are -15% and 1.86.
For `O=C(CCC1CCN(C(=O)c2csc3c2CCCC3)CC1)N1CCc2ccccc2C1`, the “% Inhibition” value is on record as 5% and the Z score is -0.91.
In the same order, the values of `CC(C)Cn1cccc(C(=O)N2CCN(c3ncns3)CC2)c1=O` are -4% and 0.89.
For `CC[C@H](C)C(=O)C(=O)N1CCn2cncc2C1`, in that order: -2% and 0.39.
In the same order, the values of `Cc1cnc(CN(C)[C@@H](c2ccc(F)cc2)c2ncccn2)o1` are -14% and 1.83.
As for `CCNC(=O)N1CC[C@H](Oc2cccnc2N(C)C)C1`, the “% Inhibition” value is recorded as -9% and the Z score is 1.03.
In the same order, the values of `COc1ccc(-c2cnn(-c3ccccn3)c2)cc1COC1CCC1` are 2% and -0.32.
In the same order, the values of `O=C(c1ccnc(/C=C/c2ccccc2)c1)N1CCOCC1` are -17% and 2.58.
For `CN(Cc1n[nH]c2c1CCCCC2)c1cc(C2CC(N)C2)nc(N)n1` (stereo unspecified), the “% Inhibition” value was found to be 5% and the Z score is given as -0.64.
As for `C=Cc1ccc(CN2C(=O)[C@H]3CCCC3=Nc3cc(C)c(C)cc32)cc1`, the “% Inhibition” value is given as -12% and the Z score turned out to be 2.22.

The values above are taken from ChEMBL document CHEMBL4888484, “Replenishing the malaria drug discovery pipeline: Screening and hit evaluation of the MMV Hit Generation Library 1 (HGL1) against asexual blood stage Plasmodium falciparum ,using a nano luciferase reporter read-out” (2022).
